Data from the supplement of paper PMC11417369.
± gives the standard deviation of the averaged measurements. The list shows a part of the results.

Test system: PfAP2-EXP AP2 domain (GST-tagged)
Test: gcPBM binding intensity (ln(normalized median fluorescence intensity)); higher = stronger DNA binding
Summary of the method: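 GST-fused DNA-binding domains of P. falciparum, expressed in E. coli, were applied at about 25 μg on average for 1 h to an Agilent 4 × 180k array of primer-extended double-stranded 36-bp intergenic genomic probes and negative controls. Binding intensity is the highest Masliner-normalised natural-log median intensity across replicate spots of either probe orientation, measured with Alexa488 anti-GST antibody and a 488 nm scan.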

Row | Sequence | gcPBM binding intensity (ln)
1 | TAATGGATTATACGTGCACACATATATACAAATAAA [CACACA_site8116] | 9.36 ± 0.52
2 | TTCTTCAATAATAAGTGTACATATGCATACATTATA [XGTACX_site1502] | 8.71 ± 0.25
3 | ATAATAAAATAAGAAGCACACAAATATTATATATAA [CACACA_site9319] | 8.79 ± 0.39
4 | AATTAAAAAATTTATGCACACTTTAAAAAAAAAAAA [CACACA_site5962] | 8.34 ± 0.29
5 | GATATGATATGATATGCATGTAACAAATTTTTTTAA [TGCATGCA_site268] | 8.98 ± 0.39
6 | AAAAAAAAATATATATATATATATATATTTATGTAT [GTGCAC_negctrl_site483] | 8.38 ± 0.25
7 | AAAAAAAATAAAAATAGTACTCAAAAAATTATGAAT [XGTACX_site3073] | 8.54 ± 0.38
8 | ATATTAATTTCTTATGCATGTTCTACCAAATTGTAT [TGCATGCA_site38] | 9.12 ± 0.66
9 | AATTATTCTCTTTTCATTTGAACAATATGCTTAAAA [CACACA_negctrl_site995] | 8.64 ± 0.54
10 | AATATTTTTTAAATGTGTACATAGGTATAGCACACA [XGTACX_site8690] | 8.455 ± 0.035
11 | GACTGCACTTTAAGCACACAAATATATTTTTTTTAT [CACACA_site1249] | 8.72 ± 0.23
12 | ACAAATATGAGAAATTGTACATATAATAAAATAGTA [XGTACX_site2573] | 8.63 ± 0.37
13 | AGTCATATAAATAGTAGTACTGTGTGTGAAGAAAAA [XGTACX_site5056] | 8.91 ± 0.38
14 | ACACATTCGAAAAATTGTACATATATAACAGAATAT [XGTACX_site7106] | 8.65 ± 0.46
15 | ATATTAGTCGAATGATGTACACACATACAAAACATT [XGTACX_site8613] | 8.57 ± 0.42
16 | ATCAAATTTGGACATGCATGTGTGTGTAAAACCATG [TGCATGCA_site309] | 9.98 ± 0.18
17 | TAATTAAAAAATAAAAAAAAAAAAAATTAAAACAAA [CACACA_negctrl_site500] | 8.15 ± 0.51
18 | TGCTAATAATTATTTGTTTAGCAACAAAAAAAAAAA [CACACA_negctrl_site1541] | 8.11 ± 0.6
19 | TTCTTTTTAATTTATTTTTTCTTATAACAAGAAAAC [CACACA_negctrl_site201] | 8.61 ± 0.41
20 | GTACATACATAAAACACACACATATATATATATATA [CACACA_site1826] | 10.2 ± 0.75
21 | TTCTTTTCTTTTTTCTTTTTTTTTTTCTTTTCTTTT [GTGCAC_negctrl_site630] | 8.59 ± 0.61
22 | AGAAAAGGACATATATGTACTTATCAATATAGAAAC [XGTACX_site1042] | 8.8 ± 0.4

Row | Sequence | gcPBM binding intensity (ln)
23 | AAAAAAAAAAAAAAAACATGCAAAATAATATATATA [TGCATGCA_site68] | 9.03 ± 0.26
24 | TCACATATGTTCCATTGTACTTGTAGTAATTTTTTC [XGTACX_site6473] | 8.73 ± 0.46
25 | GTAATATGTATCCATACACACATACATTTTATTTGC [CACACA_site4640] | 8.69 ± 0.33
26 | ATAAAATGAAATATATGTACGCATCACTTGTTGAAC [XGTACX_site4530] | 8.72 ± 0.27
27 | CATATTTGGAAACACACACACATATTTATATATATA [CACACA_site3569] | 8.99 ± 0.014
28 | TATATTTTACTCTTCACACATATACTCAATTTATAT [CACACA_site5357] | 8.94 ± 0.31
29 | AAAAGAAAAAGAAAAACACACATAAATATAAATATA [CACACA_site1879] | 8.57 ± 0.55
30 | AAAATTTTCTTTTTATGTACACATAATTTTACCGGA [XGTACX_site5276] | 8.7 ± 0.43
31 | AAAACAATAATATACTGTACATATATATAATAACAT [XGTACX_site6188] | 8.82 ± 0.49
32 | AATTTTTCATCAAGTTGTACAATTATTTGTTTGTTT [XGTACX_site3113] | 8.74 ± 0.57
33 | CATACACATACACATACACACGCATAGAAACATACG [CACACA_site8666] | 8.79 ± 0.33
34 | AAATTCAGGTTATATTTTAATTTTTTTTTGTTTTTT [CACACA_negctrl_site924] | 8.25 ± 0.35
35 | CAATATTTTTTATAGGGTACAAAAGATAAAAAAAAA [XGTACX_site6298] | 8.93 ± 0.43
36 | TAAATATTATAAATGATACACACTTAAAATACTCAC [CACACA_site2710] | 8.4 ± 0.29
37 | AACATAAGTAAGAATACATGCGGAAATTATATAGAA [TGCATGCA_site112] | 9.2 ± 0.52
38 | TATAAATTTAAAATGACACACACTAAAGTTATTTAA [CACACA_site6700] | 8.23 ± 0.4
39 | TCCCTTAAAATGATATGTACATAAAAATAAAAAAAA [XGTACX_site836] | 8.65 ± 0.13
40 | TATATATTTGTTCACACACACACAAAAAAAAAAAAA [CACACA_site2475] | 8.46 ± 0.7
41 | TAAGGACTAATATTTGAACACACATATAATATATAC [CACACA_site9325] | 8.59 ± 0.45
42 | GTCATCAAGTATTAAGTGCATTAAAAATAAAATATA | 8.66 ± 0.28
43 | CATATATATATATATATATATATATTTATTTATTTA [TGCATGCA_negctrl_site165] | 8.7 ± 0.014
44 | TTAAAAGAAAATAACACACACAAAAAAAAAAAAAAA [CACACA_site2117] | 8.01 ± 0.42

Row | Sequence | gcPBM binding intensity (ln)
45 | AAAATACACAACATATATATATATATATATATATAT [XGTACX_negctrl_site21] | 10.1 ± 0.36
46 | TTTTGTTTTAAAAGTACACACTTTTAATTAGATTTC [CACACA_site4788] | 8.35 ± 0.26
47 | TGATCAATGGATTTAACACACAAAAAAAAAAAAAAA [CACACA_site3845] | 8.09 ± 0.47
48 | TTTTTTTTTTTTTTTGCATGCAGGTTTTTACCCCTT [TGCATGCA_site381] | 9.53 ± 0.14
49 | TTATTTTCAAAATGTTGTACACACAAAAAAAAAAAA [XGTACX_site3151] | 8.69 ± 0.52
50 | ATTTATTTTTTACATTGTACATATTTATTCCTTTTA [XGTACX_site8028] | 8.8 ± 0.45
51 | TATAACATTTTTTTCAAAATAGCTTTAGAAATAAAG [CACACA_negctrl_site718] | 7.99 ± 0.38
52 | TATGTATATATATAAAGTACGCAAATTTATAATAAG [XGTACX_site8744] | 8.78 ± 0.33
53 | ATATGTGGAAATAGAGCACACATATATATAATATAT [CACACA_site8194] | 8.47 ± 0.79
54 | TTTTTTTTCTTCAAGCGTACTTATTTGTAGAAAAAA [XGTACX_site1728] | 8.64 ± 0.23
55 | ACTAACATATATTCAACACACATATACCTTCAACCC [CACACA_site3011] | 8.77 ± 0.62
56 | CCCATTTAATATTGAGTGCATTTAAATAAATGTATT | 8.69 ± 0.11
57 | TTTTACAAAGTATGATGTACAAGTATATATAAATAT [XGTACX_site2072] | 8.41 ± 0.36
58 | TATATATATATATACACACACACATATATATATATA [CACACA_site774] | 10.1 ± 0.24
59 | TGAAAAGGAAAATTTTGTACATATACATCAAGGATA [XGTACX_site656] | 8.81 ± 0.8
60 | TACATGAATAAACTTACACACACCCATGCATACATA [CACACA_site97] | 8.71 ± 0.44
61 | ACTTTTTATTTTTTACTATATATATATATATATATG [TGCATGCA_negctrl_site463] | 8.96 ± 0.4
62 | AAAAAAAAGAATTTACGTACTTATTATTTATATTTT [XGTACX_site5701] | 8.26 ± 0.34
63 | TATATATATTCTTTAAAACACACGTAAAGAAGAATT [CACACA_site2718] | 8.81 ± 0.55
64 | AAAAAAAAAAGAAACACACACATATATATATATAAT [CACACA_site5052] | 8.61 ± 0.52
65 | TGCTATATTATTATCGCACACCGTTGATTCTAAATA [CACACA_site1207] | 8.39 ± 0.29
66 | CATTTATTTATATACACACACACAAAAAAAAAAAAA [CACACA_site7279] | 8.55 ± 0.54

Row | Sequence | gcPBM binding intensity (ln)
67 | ATAAGTGTATAAAAATGTACGTGTATAAAAATATGT [XGTACX_site8235] | 9.04 ± 0.52
68 | TTTTTAATTTAAAAAAATAATATTTTATATTCCGAA [CACACA_negctrl_site108] | 8 ± 0.21
69 | AAATATTTATATATATGTACACATATAATATTTTTA [XGTACX_site2338] | 8.27 ± 0.21
70 | GTAAGCATCAAAAAAGGTACAGAAATTATAAATAAA [XGTACX_site6708] | 8.78 ± 0.26
71 | TATTTTTTATTTTTTTGTACATATTTGATAATTAAT [XGTACX_site316] | 8.77 ± 0.38
72 | ATTTCTAATATTTTTGCACACTAAACAATAAATTTC [CACACA_site3943] | 8.82 ± 0.16
73 | GAAAATTTATTTTTGGTGCATGTATTTATTTATTTT | 9.06 ± 0.085
74 | ATATATGTTATTATTTGTACACACACATATATATCC [XGTACX_site7657] | 8.95 ± 0.48
75 | GTATATAATATTAGTGCACACACAAAAATGTACTAA [CACACA_site8112] | 8.88 ± 0.13
76 | GAAATAATAAATTAAAAATCGTTTATAACATTTAAC [CACACA_negctrl_site425] | 8.13 ± 0.38
77 | ATTTTCTTTCTATGCACACGCACGTATTTGCACCCA [CACACA_site3350] | 9.35 ± 0.11
78 | AGTTTAATATAAAATACACACTACTCTTATAAATAT [CACACA_site6803] | 8.27 ± 0.29
79 | CTTTTTTTTTGATGTTGTACATATATATTATATAAT [XGTACX_site1321] | 8.77 ± 0.42
80 | AGTAATATAATATAAGCACACGTGTATTTATTTAGT [CACACA_site4246] | 8.69 ± 0.35
81 | TCCTTATATTGGCACACACACACAATAAAATGAAAA [CACACA_site4715] | 8.69 ± 0.4
82 | GGTTGCTTCAGTGAATGTACATAGTGGTAAACAAGC [XGTACX_site166] | 9.26 ± 0.38
83 | GTATAAAAGTAATGTAGTACTTATATATTTTTATTT [XGTACX_site8975] | 8.18 ± 0.18
84 | TGCACATTTATGTAACGTACAAAATATAATATGTTA [XGTACX_site8255] | 8.54 ± 0.34
85 | TACAAAATAAAAATAATTCTTTCAAAAAATAATAAA [XGTACX_negctrl_site368] | 8.04 ± 0.38
86 | TGGGAGCACAGACACACACACACACCCATATATATA [CACACA_site335] | 8.81 ± 0.26
87 | ATGTCATATATATGTTGTACGAGTTTGTTTATGTAT [XGTACX_site1150] | 9.13 ± 0.57
88 | AGTTTACATTAAATCACGCACACAAAAAAAAAAAAA [CACACA_site2419] | 8.44 ± 0.6
